Patent US20090196872A1

Target: M2 protein expressed on A/HK/1/68 infected MDCK cells (influenza A virus A/HK/1/68)
Test: cell-based ELISA, half-saturating antibody concentration
Settings: remark: other sources report otherwise

Chain of M2 protein expressed on A/HK/1/68 infected MDCK cells (influenza A virus A/HK/1/68) (Q77IM6 whole entry): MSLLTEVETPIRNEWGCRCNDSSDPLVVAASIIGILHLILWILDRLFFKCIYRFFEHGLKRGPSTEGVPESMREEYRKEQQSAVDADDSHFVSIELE

B1: human anti-M2 monoclonal antibody N547 (antibody)
chain 1: [about 100 residues cut from this listing]HLRYFDWLSDYWGQGTLVTVSS
chain 2: QSVLTQPPSMSAAPGQKVTISCSGSSSNIGNNYISWYQQLPGTAPKVLIYDNNKRPSGIPDRFSGSKSGTSATLGITGLQTGDEADYYCGSWDSSLSAGVFGTGTKVTVLG
Q: With B1 as the binder, how does the Kd read?
A: 1.22 nM
